Results taken from PubChem BioAssay AID2546 (National Center for Advancing Translational Sciences (NCATS), 2010).
About 11,000 (3.5%) of roughly 310,000 compounds were called active. Inconclusive means that the source gave no clear call. Such entries were picked first, then a sample of the others. The call rests on the fitted dose curve; in most records, active means well fitted inhibition curve with a large enough effect; inconclusive means small, poorly fitted or top-dose-only effect, or effect the other way; inactive means flat fitted curve, though single readings scatter. Potencies of inconclusive entries are left out as doubtful fits.

test: VP16 counterscreen qHTS for inhibitors of ROR gamma transcriptional activity; settings: Drosophila S2 Gal4-VP16 UAS-luciferase, luminescence, 20 h; activity, negative = inhibition: at 53.6 µM (top of the series);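 further: Gal4-VP16 expression switched on by copper sulfate through the metallothionein promoter; nearly all actives have a fitted effect of over 50% in size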
On the % scale 0 is the no-effect control and ±100 the full control effect; potency means the concentration at half of the fitted maximal effect; tags describe the fitted curve by direction and shape.

Structure (SMILES)	Potency	activity, negative = inhibition
Oc1c(C=C2N=c3ccccc3=N2)sc(=S)n1C1CCCC1	inconclusive [activator, single point]	–
CC(C)n1c(O)c(N=Nc2ccccn2)c2ccccc21	inconclusive [inhibitor, single point]	–
O=S(=O)(Nc1ccc(Cl)cc1)c1ccc2c(c1)CCO2	inconclusive [inhibitor, single point]	–
Cc1ccc(NC(=O)/C=C/c2ccc3c(c2)OCO3)cc1S(=O)(=O)N1CCOCC1	inconclusive [inhibitor, single point]	–
CC1=CN2C(=N)/C(=C/c3ccc(C)o3)C(=O)N=C2S1	active: 10 µM	–
CC1CCc2c(sc(NC(=O)C3CCCO3)c2C#N)C1 (centres undefined)	–	inactive: 9.78%
CCOC(=O)C1CCCN(C(=O)c2cc(-c3ccc(C)cc3)on2)C1 (centres undefined)	inconclusive [inhibitor, partial curve]	–
Cc1ccc(C(=O)N/C(=C\c2ccc(-c3ccccc3[N+](=O)[O-])o2)C(=O)NCCCN2CCOCC2)cc1	inconclusive [inhibitor, single point]	–
O=C1/C(=C/c2ccncc2)SC(=S)N1Nc1ccccc1	inconclusive [inhibitor, single point]	–
CCOC(=O)c1c(/N=C/c2cc(C)ccc2O)sc2c1CCC2	inconclusive [inhibitor, single point]	–
O=C(CNC(=O)c1ccccc1)N/N=C/c1cc(Br)ccc1O	active: 7.08 µM	–
CCn1c2c(c(=N)c3c1CCC3)CCCC2	–	inactive: -6.36%
COc1ccc(C(=O)NC(=S)NNC(=O)c2ccco2)cc1	inconclusive [inhibitor, single point]	–
CC(C)C[C@@H]1NC(=O)[C@H](Cc2ccccc2)N(C)C(=O)[C@H](C)NC(=O)c2ccccc2NC(=O)[C@H](Cc2ccc(O)cc2)N(C)C1=O	–	inactive: -9.58%
CCNc1ncc2nc(-c3ccc(OC)cc3)c(=O)n(CCOC)c2n1	–	inactive: -5.59%
Cc1nc(N)c(Cc2ccc(Cl)cc2Cl)c(N)n1	inconclusive [inhibitor, single point]	–
CC(Sc1ccc(S(=O)(=O)N2CCOCC2)cc1[N+](=O)[O-])C(=O)O (centres undefined)	–	inactive: -6.43%
Cc1nn(Cc2ccccc2Cl)c(C)c1NC(=O)CSc1n[nH]c(C)c1[N+](=O)[O-]	inconclusive [activator, single point]	–
CCOc1cc(-c2noc(N)c2C(=O)OC)cc(OCC)c1OCC	inconclusive [inhibitor, single point]	–
COCCNC(=S)NN=C1CCCCCC1	active: 6.31 µM	–
O=C(N/N=C\c1cccnc1)c1cc(-c2ccccc2)nc2c(Cl)cccc12	inconclusive [inhibitor, single point]	–
O=C(O)CCNc1cc(N2CCN(C(=O)c3ccco3)CC2)c2noc3c2c1C(=O)c1ccccc1-3	–	inactive: -12.7%
O=C(Nc1ccc(F)cc1)C1CC(=O)n2cnnc2N1 (centres undefined)	–	inactive: -15.1%
CCN(C(=O)c1cc2c(=O)[nH]c3ccc(C)cc3c2s1)c1ccc(F)cc1	inconclusive [inhibitor, single point]	–
CCOc1ccc(NC(=O)C2CCN(C(=O)N3CCOc4ccccc43)CC2)cc1	–	inactive: -5.72%

Structure (SMILES)	Potency	activity, negative = inhibition
O=C(Nc1ncnc2sc3c(c12)CCCC3)c1ccncc1	active: 11.2 µM	–
COc1ccccc1NC(=S)N1CCN(c2ccccc2F)CC1	inconclusive [inhibitor, single point]	–
N#Cc1c(SCC(=O)O)nc(-c2ccccc2)c2c1CCCC2	–	inactive: -2.05%
CCCCCOc1ccc(C2C(C(=O)c3ccc(C)o3)=C(O)C(=O)N2c2cc(C)on2)cc1 (centres undefined)	inconclusive [inhibitor, single point]	–
O=[N+]([O-])c1cc(S(=O)(=O)C(F)(F)F)ccc1Sc1nc2ccccc2[nH]1	inconclusive [inhibitor, single point]	–
Cc1nn(Cc2ccccc2)c(C)c1NC(=O)c1cc2nc(-c3ccco3)cc(C(F)(F)F)n2n1	–	inactive: 2.72%
COc1ccc(NC(=O)CC2C(=O)N(C)C(=S)N2Cc2ccc3c(c2)OCO3)cc1 (centres undefined)	–	inactive: -13.5%
O=S(=O)(NCc1nc2ccccc2[nH]1)c1ccccc1	–	inactive: 10.7%
O=C(N/N=C/c1cccc(C(F)(F)F)c1)c1ccc(O)cc1	inconclusive [inhibitor, full curve]	–
CSc1cccc(NC(=S)NC(=O)c2cccnc2)c1	active: 11.2 µM	–
O=C(N/N=C/c1sc(N2CCCCC2)nc1-c1cccs1)C1CC1	inconclusive [inhibitor, single point]	–
CC(C)=CC1C(C(=O)Nc2ccc(Br)cn2)C1(C)C (centres undefined)	inconclusive [inhibitor, single point]	–
Cc1cccc(Cc2nnc(CCC(=O)NCc3ccncc3C)o2)c1	inconclusive [activator, partial curve, poor fit]	–
Cc1ccccc1C(=O)N1CCc2c([nH]c3ccccc23)C1C(F)(F)F (centres undefined)	–	inactive: 6.72%
CC(C)(C)n1cnc2cc(NC(=O)c3ccccc3)ccc21	–	inactive: -0.892%
COc1ccc(N(C(=O)c2snc(C(N)=O)c2N)C(C(=O)NCc2ccccc2)c2ccc(O)cc2)cc1 (centres undefined)	–	inactive: 23.3%
CCOc1ncccc1C(=O)Nc1nc(SC)ns1	inconclusive [activator, full curve]	–
Cn1cccc1C(=O)N1CCN(c2cccc(C(F)(F)F)c2)CC1	–	inactive: -10.2%
Cc1cc(C)nc(-n2nc(C)c(Br)c2Nc2ccc(Br)cc2)n1	active: 0.891 µM	–
Nc1nc(CN2CCN(c3ccccc3F)CC2)nc(N2CCCc3ccccc32)n1	inconclusive [inhibitor, single point]	–
COc1ccccc1CNC(=O)CS(=O)(=O)c1ccc(C)cc1	–	inactive: -2.68%
CCc1ccc(C2=NN(CCC(=O)NCc3cccs3)C(=O)CC2)cc1	–	inactive: -22.4%
N/C(COc1ccc(Cl)cc1Cl)=N\O	–	inactive: -0.588%
Nc1ccccc1C(=O)NNC(=O)C(=O)/C=C(\O)c1ccccc1	inconclusive [inhibitor, single point]	–
